Data published in the supplement of paper PMC4967469.
By IC50 is meant the dose at which the fit gives 50% viability; fits outside the tested doses are given as limits. AUC sums up the same curve from the lowest dose to the 256-fold higher top dose; it is 1 without any effect and falls as sensitivity rises. The top dose, if marked as inferred, was derived from the fitted curves, not read from the paper.

The cell lines below were run with CC1=C(C(=O)Nc2cc3cn[nH]c3cc2F)C(c2ccc(C(F)(F)F)cc2)CC(=O)N1 [GSK429286A] (assay: Viability of human cancer cell lines after 72 h of drug (GDSC screen)). Settings: top dose inferred.
Experimental: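 Human cancer cell lines in 384-well plates, medium with 10% serum, drug for 72 h over a 256-fold dose range (nine 2-fold or five 4-fold steps up to the top dose). Adherent lines were fixed and stained with the nucleic acid dye Syto60, suspension lines read with resazurin; signal relative to control wells, capped at 0 and 100%. One two-parameter sigmoid per drug and line, fitted in a mixed model over all curves with the slope shared within a line.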

In order of falling AUC:
1. SU-DHL-4 (B-cell lymphoma, suspension, top dose 20 µM)  0.991
2. SW13 (adrenal gland, adherent, top dose 20 µM)  0.988
3. SiHa (cervix, adherent, top dose 20 µM)  0.987
4. SU-DHL-16 (B-cell lymphoma, suspension, top dose 20 µM)  0.986
5. SW780 (bladder, adherent, top dose 20 µM)  0.986
6. SW1417 (large intestine, adherent, top dose 20 µM)  0.986
7. SW1116 (large intestine, adherent, top dose 20 µM)  0.985
8. SW756 (cervix, adherent, top dose 20 µM)  0.984
9. SW626 (ovary, adherent, top dose 20 µM)  0.983
10. SW684 (fibrosarcoma, adherent, top dose 20 µM)  0.983
11. SW837 (large intestine, adherent, top dose 20 µM)  0.983
12. SW900 (lung squamous cell carcinoma, adherent, top dose 20 µM)  0.982
13. T84 (large intestine, adherent, top dose 20 µM)  0.982
14. Saos-2 (osteosarcoma, adherent, top dose 20 µM)  0.981
15. SW1573 (lung adenocarcinoma, adherent, top dose 20 µM)  0.98
16. T98G (glioma, adherent, top dose 20 µM)  0.98
17. SW1783 (glioma, adherent, top dose 20 µM)  0.979
18. SW1463 (large intestine, adherent, top dose 20 µM)  0.978
19. SW872 (soft tissue, adherent, top dose 20 µM)  0.977
20. T47D (breast, adherent, top dose 20 µM)  0.976
21. SW1990 (pancreas, adherent, top dose 20 µM)  0.973
22. SW948 (large intestine, adherent, top dose 20 µM)  0.972
23. T-24 (bladder, adherent, top dose 20 µM)  0.964
24. SW1088 (glioma, adherent, top dose 20 µM)  0.959
25. SW962 (urogenital system, adherent, top dose 20 µM)  0.957
26. SW954 (urogenital system, adherent, top dose 20 µM)  0.941
27. SUP-HD1 (Hodgkin lymphoma, suspension, top dose 20 µM)  0.94
28. SU-DHL-10 (B-cell lymphoma, suspension, top dose 20 µM)  0.937
29. SW48 (large intestine, adherent, top dose 20 µM)  0.935
30. SW620 (large intestine, adherent, top dose 20 µM)  0.935
31. SUP-T1 (T-cell lymphoblastic leukaemia, suspension, top dose 20 µM)  0.933
32. SU-DHL-5 (B-cell lymphoma, suspension, top dose 20 µM)  0.928
33. SW156 (kidney, adherent, top dose 20 µM)  0.927
34. SU-DHL-6 (B-cell lymphoma, suspension, top dose 20 µM)  0.926
35. SW982 (soft tissue, adherent, top dose 20 µM)  0.899
36. SUIT-2 (pancreas, adherent, top dose 20 µM)  0.887
37. SUP-M2 (anaplastic large cell lymphoma, suspension, top dose 20 µM)  0.887
38. SW1271 (small cell lung carcinoma, adherent, top dose 20 µM)  0.866
39. SU-DHL-8 (B-cell lymphoma, suspension, top dose 20 µM)  0.816
40. SUP-B15 (lymphoblastic leukaemia, suspension, top dose 20 µM)  0.729
41. SW1710 (bladder, adherent, top dose 20 µM)  0.28

Going from “SU-DHL-4 (B-cell lymphoma, suspension, top dose 20 µM)” to “SU-DHL-5 (B-cell lymphoma, suspension, top dose 20 µM)”, the IC50 falls from over 20 µM to 18.5 µM.

Compared with “SU-DHL-6 (B-cell lymphoma, suspension, top dose 20 µM)”, “SU-DHL-8 (B-cell lymphoma, suspension, top dose 20 µM)” is 1.7-fold lower in IC50: 17.4 µM for the first, 10.1 µM for the second.

Going from “SU-DHL-10 (B-cell lymphoma, suspension, top dose 20 µM)” to “SU-DHL-16 (B-cell lymphoma, suspension, top dose 20 µM)”, the IC50 rises from 16.5 µM to over 20 µM.

Compared with “SUIT-2 (pancreas, adherent, top dose 20 µM)”, “SUP-B15 (lymphoblastic leukaemia, suspension, top dose 20 µM)” is lower in IC50: over 20 µM for the first, 5.41 µM for the second.

Compared with “SUP-HD1 (Hodgkin lymphoma, suspension, top dose 20 µM)”, “SUP-M2 (anaplastic large cell lymphoma, suspension, top dose 20 µM)” is lower in IC50: over 20 µM for the first, 13.3 µM for the second.

“SUP-T1 (T-cell lymphoblastic leukaemia, suspension, top dose 20 µM)” and “SW13 (adrenal gland, adherent, top dose 20 µM)” cannot be ordered by IC50: over 20 µM for the first, over 20 µM for the second.

“SW48 (large intestine, adherent, top dose 20 µM)” and “SW156 (kidney, adherent, top dose 20 µM)” cannot be ordered by IC50: over 20 µM for the first, over 20 µM for the second.

“SW620 (large intestine, adherent, top dose 20 µM)” and SW626 (ovary, adherent, top dose 20 µM) cannot be ordered by IC50: over 20 µM for the first, over 20 µM for the second.

“SW684 (fibrosarcoma, adherent, top dose 20 µM)” and “SW756 (cervix, adherent, top dose 20 µM)” cannot be ordered by IC50: over 20 µM for the first, over 20 µM for the second.

“SW780 (bladder, adherent, top dose 20 µM)” and “SW837 (large intestine, adherent, top dose 20 µM)” cannot be ordered by IC50: over 20 µM for the first, over 20 µM for the second.

“SW872 (soft tissue, adherent, top dose 20 µM)” and “SW900 (lung squamous cell carcinoma, adherent, top dose 20 µM)” cannot be ordered by IC50: over 20 µM for the first, over 20 µM for the second.

“SW948 (large intestine, adherent, top dose 20 µM)” and “SW954 (urogenital system, adherent, top dose 20 µM)” cannot be ordered by IC50: over 20 µM for the first, over 20 µM for the second.

“SW962 (urogenital system, adherent, top dose 20 µM)” and “SW982 (soft tissue, adherent, top dose 20 µM)” cannot be ordered by IC50: over 20 µM for the first, over 20 µM for the second.

“SW1088 (glioma, adherent, top dose 20 µM)” and “SW1116 (large intestine, adherent, top dose 20 µM)” cannot be ordered by IC50: over 20 µM for the first, over 20 µM for the second.

“SW1271 (small cell lung carcinoma, adherent, top dose 20 µM)” and “SW1417 (large intestine, adherent, top dose 20 µM)” cannot be ordered by IC50: over 20 µM for the first, over 20 µM for the second.

“SW1463 (large intestine, adherent, top dose 20 µM)” and “SW1573 (lung adenocarcinoma, adherent, top dose 20 µM)” cannot be ordered by IC50: over 20 µM for the first, over 20 µM for the second.

Compared with “SW1710 (bladder, adherent, top dose 20 µM)”, “SW1783 (glioma, adherent, top dose 20 µM)” is higher in IC50: 0.292 µM for the first, over 20 µM for the second.

“SW1990 (pancreas, adherent, top dose 20 µM)” and “Saos-2 (osteosarcoma, adherent, top dose 20 µM)” cannot be ordered by IC50: over 20 µM for the first, over 20 µM for the second.

SiHa (cervix, adherent, top dose 20 µM) and T47D (breast, adherent, top dose 20 µM) cannot be ordered by IC50: over 20 µM for the first, over 20 µM for the second.

“T84 (large intestine, adherent, top dose 20 µM)” and T98G (glioma, adherent, top dose 20 µM) cannot be ordered by IC50: over 20 µM for the first, over 20 µM for the second.

With “T-24 (bladder, adherent, top dose 20 µM)” the IC50 was over 20 µM.
